A number of entries come with more than one value. Only these are listed. An entry can have further records. Values that stand side by side are repeats across runs, samples, wells, individuals or studies. Marks such as (2×) stand for listed records that agree.
Tested on: 435261-313-R-J1-PDC tumor spheroid viability
Assay: Anticancer human tumor 435261-313-R-J1-PDC patient-derived colon adenocarcinoma cell line growth inhibition [PI3K]
Details: spheroids with HUVEC and MSC; for IC50: compound alone; for viability, T/C: stronger effect = lower value
Source text: Combinatorial screen of targeted agents with the PI3K inhibitors inavolisib, alpelisib, duvelisib, and copanlisib in multi-cell type tumor spheroids
A high-throughput screen of multi-cell type tumor spheroids was designed to identify active combinations of targeted small molecules and PI3K pathway inhibitors. Complex spheroids include a stromal component modeled by human endothelial cells (HUVEC) and fibroblasts modeled by human mesenchymal stem cells (MSCs). The concentration ranges selected for each drug and investigational agent were based upon clinically achievable concentrations if the clinical Cmax of the agent was known.
Compounds. The drugs and investigational agents: inavolisib (NSC800729), alpelisib (NSC765974), duvelisib (NSC772469), copanlisib (NSC816437), ipatasertib (NSC767898), afuresertib (NSC778305), talazoparib (NSC767125), sapanisertib (NSC764658), selumetinib (NSC741078), tovorafenib (DAY101, NSC766906), vemurafenib (NSC761431), ravoxertinib (NSC781343), sotorasib (NSC818433), MRTX1133 (NSC 836407), abemaciclib (NSC 768073), palbociclib (NSC758247), venetoclax (NSC 766270), SY5609 (NSC837396), enzalutamide (NSC755605), and darolutamide (NSC825331), were obtained from the National Cancer Institute (NCI) Developmental Therapeutics Program Chemical Repository. The FDA-approved anticancer drug set is available from the NCI Developmental Therapeutics Program. […] The stock solutions were prepared in dimethyl sulfoxide (DMSO, Sigma-Aldrich, St. Louis, MO, cat. D2650) at 800-fold the tested concentration and stored at -70 degrees C prior to their use. All drugs and investigational agents were tested over a range starting from a high concentration at or near the clinical Cmax and decreasing in half-log increments. If the clinical Cmax for an agent had not been determined, the highest concentration tested was 10 microM.
Cell Culture. All cells were maintained in an incubator at 37 degrees C and 5% CO2 with 95% humidity. The PDC lines were cultured according to standard operating procedures established by the NCI PDMR (https://pdmr.cancer.gov/sops/default.htm). All PDCs were thawed and cultured in Matrigel-coated flasks prepared with a working solution of 1X Ham's F-12 nutrient mix, without supplementation (Invitrogen, Waltham, MA, cat. 11765054), 100 U/mL penicillin-streptomycin (Invitrogen, cat. 15140122), and 2.5% Matrigel (Corning Inc., Corning, NY, cat. 354248) for the first three passages. The 354836-022-R-J1-PDC, 475296-252-R-J1-PDC, and 997726-040-R-J2-PDC lines were cultured in 6A media, which includes advanced DMEM/F-12 (Thermo Fisher Scientific, cat. 12634028), 10 mM HEPES (Thermo Fisher Scientific, cat. 15630080), 1X GlutaMAX supplement (Thermo Fisher Scientific, cat. 35050061), 0.1 mg/mL primocin (InvivoGen, San Diego, CA, cat. ant-pm-2), 10% defined fetal bovine serum, heat inactivated (HyClone Laboratories Inc., Logan, UT, cat. SH30070.03HI), 50% L-WRN conditioned media (ATCC, cat. CRL-3276), 1.25 mM N-Acetyl-L-cysteine (Sigma-Aldrich, cat. A9165), 10 mM nicotinamide (Sigma-Aldrich, cat. N0636), 1X B-27 supplement (Thermo Fisher Scientific, cat. 17504044), 1X N-2 supplement (Thermo Fisher Scientific, cat. 17502048), and 10 microM Y-27632 dihydrochloride (Tocris Bioscience, Bristol, United Kingdom, cat. 1254). The 624824-186-R-J2-PDC line was cultured in 6C/Colon 1B media, which includes all 6A media components plus 50 ng/mL human EGF recombinant protein (Thermo Fisher Scientific, cat. PHG0311). […]

Row | Structure (SMILES) | IC50 | viability, T/C (compound alone 0.0316 µM) | viability, T/C (compound alone 0.1 µM) | viability, T/C (compound alone 0.316 µM) | further results
1 | CCN1CCN(Cc2ccc(Nc3ncc(F)c(-c4cc(F)c5nc(C)n(C(C)C)c5c4)n3)nc2)CC1 | 73.7 nM, 781 nM, > 1 µM | – | – | – | –
2 | CC1(C)CCC(CN2CCN(c3ccc(C(=O)NS(=O)(=O)c4ccc(NCC5CCOCC5)c([N+](=O)[O-])c4)c(Oc4cnc5[nH]ccc5c4)c3)CC2)=C(c2ccc(Cl)cc2)C1 | 5.45 µM, 6.46 µM, > 10 µM, 5.79 µM | 78.1, 77.3, 92.4, 105% | 79.9, 109, 63, 72.1% | 70.9, 116, 106, 131% | viability, T/C (compound alone 1 µM): 76, 91.4, 87.1, 106%; viability, T/C (compound alone 10 µM): 12.7, 19.4, 71.2, 15.5%
3 | CC1(C)CCC(Nc2ncc(C(F)(F)F)c(-c3c[nH]c4c(P(C)(C)=O)c(C#N)ccc34)n2)CN1 (stereo not given) | 315 nM, 1.25 µM, 2.59 µM, 3.76 µM | – | – | 41.7, 66.3, 58.7, 72.3% | –
4 | C=CC(=O)N1CCN(c2nc(=O)n(-c3c(C)ccnc3C(C)C)c3nc(-c4c(O)cccc4F)c(F)cc23)C(C)C1 (stereo not given) | – | – | 113, 92.1, 81.7, 83.2% | – | viability, T/C (compound alone 1 µM): 72.7, 102, 77.8, 123%
5 | CNC(=O)c1ccc(N2C(=S)N(c3ccc(C#N)c(C(F)(F)F)c3)C(=O)C2(C)C)cc1F | – | 74.1, 113, 120, 104% | 68.9, 115, 89.1, 74.2% | 93.1, 99.2, 80.7, 72.9% | viability, T/C (compound alone 1 µM): 91.8, 90.2, 122, 68%; viability, T/C (compound alone 10 µM): 122, 88.1, 84.4, 83.1%
6 | CC(Nc1ccc2c(c1)OCCn1cc(N3C(=O)OCC3C(F)F)nc1-2)C(N)=O (stereo not given) | – | 35.9, 53.1, 91.9, 81.3, 66.9, 110, 104% | – | – | viability, T/C (compound alone 0.00316 µM): 108, 99.9, 94.9, 101, 85.5, 77.8, 88.4%; viability, T/C (compound alone 0.01 µM): 120, 85.1, 86.3, 92.4, 87.6, 93.2, 108%; IC50 (run of 06/12/2023): 25.7, 38.2, 66.5, 66.8, 56.5, 67.1, 78.2 nM
7 | COc1c(OCCCN2CCOCC2)ccc2c3n(c(=NC(=O)c4cnc(N)nc4)nc12)CCN3 | – | – | – | – | viability, T/C (compound alone 0.00316 µM): 65.8, 76.7, 90.8, 84.8, 57.5, 89.1%; viability, T/C (compound alone 0.01 µM): 51.8, 58.3, 58.7, 54, 55.8, 83.8%
8 | Cc1nc(NC(=O)N2CCCC2C(N)=O)sc1-c1ccnc(C(C)(C)C(F)(F)F)c1 (stereo not given) | – | 98.5, 73.1, 84.7, 98.3, 98.9, 88.6% | – | – | –
9 | CC(Nc1ncnc2nc[nH]c12)c1cc2cccc(Cl)c2c(=O)n1-c1ccccc1 (stereo not given) | – | 92.6, 110, 95.9, 84.9, 96.1, 84.4, 92.4% | 103 (2×), 105, 72.6, 75.1, 110, 76.6% | 87.6, 86.9, 104, 71.6, 84.5, 74.7, 92.2% | viability, T/C (compound alone 10 µM): 64.4, 59.7, 37.5, 56.9, 60.2, 32.6, 46.5%; IC50 (run of 06/13/2023): 6.68 µM, > 10 µM, 6.28 µM, 8.3 µM
10 | Cn1nccc1Nc1nccc(-c2ccn(C(CO)c3ccc(Cl)c(F)c3)c(=O)c2)n1 (stereo not given) | 518, 227, 403, 925 nM | 68.2, 50, 103, 94.5% | 72.5, 67.9, 67.7, 95.5% | – | –
11 | Cn1ncnc1[C@H]1c2n[nH]c(=O)c3cc(F)cc(c23)N[C@@H]1c1ccc(F)cc1 | – | 77.5, 102, 91.7, 65.2% | – | – | viability, T/C (compound alone 0.000316 µM): 72.2, 67.2, 99.3, 127%; viability, T/C (compound alone 0.001 µM): 81.3, 95.7, 69.7, 73.6%; viability, T/C (compound alone 0.01 µM): 73.9, 101, 77.2, 93.4%

— PubChem BioAssay AID1963976 (Molecular Pharmacology Branch, DTP, NCI, 2024)
